These molecules were tested against dopamine D2 receptor (Homo sapiens, UniProt P14416) (assay: biochemical). Details: D2 Ki (nM), Table 1; 0.4 nM [3H]spiperone, CHO-hD2L membranes.
Sequence of UniProt P14416 (P14416 whole entry): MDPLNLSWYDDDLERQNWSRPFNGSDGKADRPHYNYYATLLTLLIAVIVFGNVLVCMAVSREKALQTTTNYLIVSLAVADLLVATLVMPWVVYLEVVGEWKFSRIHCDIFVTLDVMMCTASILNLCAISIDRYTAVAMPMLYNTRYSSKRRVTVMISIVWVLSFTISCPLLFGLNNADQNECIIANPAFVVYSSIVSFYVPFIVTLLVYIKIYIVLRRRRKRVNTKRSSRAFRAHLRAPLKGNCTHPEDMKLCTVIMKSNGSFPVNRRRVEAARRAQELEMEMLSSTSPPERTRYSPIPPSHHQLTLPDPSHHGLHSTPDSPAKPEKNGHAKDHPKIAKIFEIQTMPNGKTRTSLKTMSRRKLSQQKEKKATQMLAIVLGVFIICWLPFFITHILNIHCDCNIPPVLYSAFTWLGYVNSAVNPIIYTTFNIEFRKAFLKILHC

In order of falling Ki:
1. Cc1ccnc(N2CCN(CCCCOc3ccc4c(n3)NC(=O)CC4)CC2)n1 [Example A47, 7-{4-[4-(4-Methyl-pyrimidin-2-yl)-piperazin-1-yl]-butoxy}-3,4-dihydro-1H-[1,8]naphthyridin-2-one]  75.9 nM
2. Cc1cccc(N2CCN(CCCCCc3ccc4c(n3)NC(=O)CC4)CC2)n1 [Example C16, 7-{5-[4-(6-Methyl-pyridin-2-yl)-piperazin-1-yl]-pentyl}-3,4-dihydro-1H-[1,8]naphthyridin-2-one]  46.7 nM
3. CC(C)COc1ccccc1N1CCN(CCCCOc2ccc3c(n2)NC(=O)CC3(C)C)CC1 [Example D24, 7-{4-[4-(2-Isobutoxy-phenyl)-piperazin-1-yl]-butoxy}-4,4-dimethyl-3,4-dihydro-1H-[1,8]naphthyridin-2-one]  13.4 nM
4. O=c1ccc2ccc(OCCCCN3CCN(c4ccc(F)cc4)CC3)nc2[nH]1 [Example B13, 7-{4-[4-(4-Fluoro-phenyl)-piperazin-1-yl]-butoxy}-1H-[1,8]naphthyridin-2-one]  11.2 nM
5. COc1cccc(N2CCN(CCCCOc3ccc4ccc(=O)[nH]c4n3)CC2)c1C [Example B27, 7-{4-[4-(3-Methoxy-2-methyl-phenyl)-piperazin-1-yl]-butoxy}-1H-[1,8]naphthyridin-2-one]  9.8 nM
6. CCc1ccccc1N1CCN(CCCCOc2ccc3c(n2)NC(=O)CC3(C)C)CC1 [Example D23, 7-{4-[4-(2-Ethyl-phenyl)-piperazin-1-yl]-butoxy}-4,4-dimethyl-3,4-dihydro-1H-[1,8]naphthyridin-2-one]  6.9 nM
7. CCOc1cccc(N2CCN(CCCCOc3ccc4c(n3)NC(=O)CC4)CC2)c1Cl [Example A21, 7-{4-[4-(2-Chloro-3-ethoxy-phenyl)-piperazin-1-yl]-butoxy}-3,4-dihydro-1H-[1,8]naphthyridin-2-one]  6.7 nM
8. O=c1ccc2ccc(OCCCN3CCN(c4cccc(Cl)c4Cl)CC3)nc2[nH]1 [Example C1, 7-{3-[4-(2,3-Dichloro-phenyl)-piperazin-1-yl]-propoxy}-1H-[1,8]naphthyridin-2-one]  6.6 nM
9. O=c1ccc2ccc(OCCCN3CCN(c4cccc5ccccc45)CC3)nc2[nH]1 [Example C2, 7-[3-(4-Naphthalen-1-yl-piperazin-1-yl)-propoxy]-1H-[1,8]naphthyridin-2-one]  4.7 nM
10. COc1cccc(N2CCN(CCCCOc3ccc4c(n3)NC(=O)CC4)CC2)c1Cl [Example A22, 7-{4-[4-(2-Chloro-3-methoxy-phenyl)-piperazin-1-yl]-butoxy}-3,4-dihydro-1H-[1,8]naphthyridin-2-one]  4.5 nM
11. O=C1CCc2ccc(OCCCCN3CCN(c4cccc5c4CCCC5(F)F)CC3)nc2N1 [Example A59, 7-{4-[4-(5,5-Difluoro-5,6,7,8-tetrahydro-naphthalen-1-yl)-piperazin-1-yl]-butoxy}-3,4-dihydro-1H-[1,8]naphthyridin-2-one]  4.5 nM
12. CC(=O)c1c(Cl)cccc1N1CCN(CCCCOc2ccc3c(n2)NC(=O)CC3)CC1 [Example A28, 7-{4-[4-(2-Acetyl-3-chloro-phenyl)-piperazin-1-yl]-butoxy}-3,4-dihydro-1H-[1,8]naphthyridin-2-one]  3.5 nM
13. N#Cc1ccc2cccc(N3CCN(CCCCOc4ccc5c(n4)NC(=O)CC5)CC3)c2c1 [Example A83, 8-{4-[4-(7-Oxo-5,6,7,8-tetrahydro-[1,8]naphthyridin-2-yloxy)-butyl]-piperazin-1-yl}-naphthalene-2-carbonitrile]  2.5 nM
14. CCc1c(Cl)cccc1N1CCN(CCCCOc2ccc3ccc(=O)[nH]c3n2)CC1 [Example B4, 7-{4-[4-(3-Chloro-2-ethyl-phenyl)-piperazin-1-yl]-butoxy}-1H-[1,8]naphthyridin-2-one]  1.4 nM
15. O=c1[nH]c2nc(OCCCCN3CCN(c4cccc5ccccc45)CC3)ccc2cc1F [Example D10, 3-Fluoro-7-[4-(4-naphthalen-1-yl-piperazin-1-yl)-butoxy]-1H-[1,8]naphthyridin-2-one]  0.9 nM
16. O=C1COc2ccc(OCCCCN3CCN(c4cccc5c4CCC5)CC3)nc2N1 [Example G4, 6-[4-(4-Indan-4-yl-piperazin-1-yl)-butoxy]-4H-pyrido[3,2-b][1,4]oxazin-3-one]  0.7 nM
17. O=C1COc2ccc(OCCCCN3CCN(c4cccc5ccccc45)CC3)nc2N1 [Example G5, 6-[4-(4-Naphthalen-1-yl-piperazin-1-yl)-butoxy]-4H-pyrido[3,2-b][1,4]oxazin-3-one]  0.6 nM

Same assay, conditions: D2 Ki (nM), Table 2; 0.4 nM [3H]spiperone, CHO-hD2L membranes

In order of falling Ki:
1. CC(=O)N1CCCc2c(N3CCN(CCCCOc4ccc5ccc(=O)[nH]c5n4)CC3)cccc21 [Example B27′, 7-{4-[4-(1-Acetyl-1,2,3,4-tetrahydro-quinolin-5-yl)-piperazin-1-yl]-butoxy}-1H-[1,8]naphthyridin-2-one]  17.9 nM
2. O=c1ccc2cnc(OCCCCN3CCN(c4cccc5c4OCCO5)CC3)nc2[nH]1 [Example G1′, 2-{4-[4-(2,3-Dihydro-benzo[1,4]dioxin-5-yl)-piperazin-1-yl]-butoxy}-8H-pyrido[2,3-d]pyrimidin-7-one]  10 nM
3. CN1C(=O)CCc2cccc(N3CCN(CCCCOc4ccc5c(n4)NC(=O)CC5)CC3)c21 [Example A49′, 7-{4-[4-(1-Methyl-2-oxo-1,2,3,4-tetrahydro-quinolin-8-yl)-piperazin-1-yl]-butoxy}-3,4-dihydro-1H-[1,8]naphthyridin-2-one]  7.5 nM
4. O=C1CCc2cc(F)c(OCCCCN3CCN(c4cccc5cnccc45)CC3)nc2N1 [Example D2′, 6-Fluoro-7-[4-(4-isoquinolin-5-yl-piperazin-1-yl)-butoxy]-3,4-dihydro-1H-[1,8]naphthyridin-2-one]  5 nM
5. O=c1ccc2ccc(OCCCCN3CCN(c4cccc5c4CCCO5)CC3)nc2[nH]1 [Example B10′, 7-[4-(4-Chroman-5-yl-piperazin-1-yl)-butoxy]-1H-[1,8]naphthyridin-2-one]  1 nM
6. O=C1COc2ccc(OCCCCN3CCN(c4cccc5c4OCCC5)CC3)nc2N1 [Example F4′, 6-[4-(4-Chroman-8-yl-piperazin-1-yl)-butoxy]-4H-pyrido[3,2-b][1,4]oxazin-3-one]  1 nM
7. O=c1ccc2ccc(OCCCCN3CCN(c4cccc5c4OCCCO5)CC3)nc2[nH]1 [Example B20′, 7-{4-[4-(3,4-Dihydro-2H-benzo[b][1,4]dioxepin-6-yl)-piperazin-1-yl]-butoxy}-1H-[1,8]naphthyridin-2-one]  1 nM
8. O=c1ccc2ccc(OCCCCN3CCN(c4cccc5nc(C(F)(F)F)[nH]c45)CC3)nc2[nH]1 [Example B41′, 7-{4-[4-(2-Trifluoromethyl-3H-benzoimidazol-4-yl)-piperazin-1-yl]-butoxy}-1H-[1,8]naphthyridin-2-one]  0.8 nM
9. O=C1CCc2cnc(OCCCCN3CCN(c4cccc5c4OC(F)(F)O5)CC3)cc2N1 [Example H4′, 7-{4-[4-(2,2-Difluoro-benzo[1,3]dioxol-4-yl)-piperazin-1-yl]-butoxy}-3,4-dihydro-1H-[1,6]naphthyridin-2-one]  0.6 nM
10. O=C1CCc2ccc(OCCCCN3CCN(c4cccc5cc(F)cnc45)CC3)nc2N1 [Example A39′, 7-{4-[4-(3-Fluoro-quinolin-8-yl)-piperazin-1-yl]-butoxy}-3,4-dihydro-1H-[1,8]naphthyridin-2-one]  0.4 nM
11. O=C1CCc2ccc(OCCCCN3CCN(c4cccc5sccc45)CC3)nc2N1 [Example A28′, 7-[4-(4-Benzo[b]thiophen-4-yl-piperazin-1-yl)-butoxy]-3,4-dihydro-1H-[1,8]naphthyridin-2-one]  0.3 nM

— US7160888B2, “[1,8]naphthyridin-2-ones and related compounds for the treatment of schizophrenia” (Warner Lambert Company LLC, priority 2003, dated 2007)
